According to patent US20130079280A1 (MEDLMMUNE, published 2013):

What was measured:
[1] = molecular target: T1, human TRAIL R2 on the cell surface (H2122, Colo205, Jurkat and other tumor cell lines) (human, UniProt O14763 56-440); assay: cell-based or functional assay
[2] = molecular target: T1, human TRAIL R2 on the cell surface …; assay: flow cytometry on H2122 cells, 10 nM protein, anti-human IgG Alexa Fluor 488

B1: A9 (1E11), tetravalent antibody-like Tn3 (other)
heavy: SQIEVKDVTDTTALITWAKPWVDPPPLWGCELAYGIKDVPGDRTTIDLQQKHTAYSIGNLKPDTEYEVSLICFDPYGAKSNPAKETFTTGGGTPTSSASTKGPSVFPLAPSSKSTSGGTAALGCLVKDYFPEPVTVSWNSGALTSGVHTFPAVLQSSGLYSLSSVVTVPSSSLGTQTYICNVNHKPSNTKVDKRV[omitted - human IgG1 Fc]
light: SQIEVKDVTDTTALITWAKPWVDPPPLWGCELAYGIKDVPGDRTTIDLQQKHTAYSIGNLKPDTEYEVSLICFDPYGAKSNPAKETFTTGGGTPTRTVAAPSVFIFPPSDEQLKSGTASVVCLLNNFYPREAKVQWKVDNALQSGNSQESVTEQDSKDSTYSLSSTLTLSKADYEKHKVYACEVTHQGLSSPVTKSFNRGEC
Q: Which results are given for B1?
A: EC50, killing of H2122 (CellTiter-Glo) [1]: 1.98 nM; Maximum Inhibition %, H2122 [1]: 80%

B2: B9 (D1), format-matched antibody-like control Tn3 (other)
heavy: SQIEVKDVTDTTALITWSPGERIWMFTGCELTYGIKDVPGDRTTIDLTEDENQYSIGNLKPDTEYEVSLICPNYERISNPAKETFTTGGGTPTSSASTKGPSVFPLAPSSKSTSGGTAALGCLVKDYFPEPVTVSWNSGALTSGVHTFPAVLQSSGLYSLSSVVTVPSSSLGTQTYICNVNHKPSNTKVDKRV[omitted - human IgG1 Fc]
light: SQIEVKDVTDTTALITWSPGERIWMFTGCELTYGIKDVPGDRTTIDLTEDENQYSIGNLKPDTEYEVSLICPNYERISNPAKETFTTGGGTPTRTVAAPSVFIFPPSDEQLKSGTASVVCLLNNFYPREAKVQWKVDNALQSGNSQESVTEQDSKDSTYSLSSTLTLSKADYEKHKVYACEVTHQGLSSPVTKSFNRGEC
notes: Control of A9 carrying the Synagis-specific D1 module; also called B9 (clone D1)
Q: Does B2 bind [2]?
A: no binding (tested: 10 nM)

B3: A7 (1E11), tetravalent Fc-fusion Tn3 (Fc fusion)
chain: AMASGGGGSAIEVKDVTDTTALITWAKPWVDPPPLWGCELAYGIKDVPGDRTTIDLQQKHTAYSIGNLKPDTEYEVSLICFDPYGAKSNPAKETFTTGGGGSGGGGSGGGGSAIEVKDVTDTTALITWAKPWVDPPPLWGCELAYGIKDVPGDRTTIDLQQKHTAYSIGNLKPDTEYEVSLICFDPYGAKSNPAKETFTTGGGGSGGGGSGTGA[omitted - human IgG1 Fc]
Q: For B3, which “Maximum Inhibition %, H2122” value [1] is on record?
A: 88%
